Here are results for one molecule from US20110083201A1 (UNIVERSITY OF ALBERTA, published 2011).

Experiment [1] deals with T1, mouse serpina3n secreted by Sertoli cells (in Sertoli cell-conditioned medium, SCCM) (mouse, UniProt Q91WP6 21-418).
T1 construct: Native serpin secreted by BALB/c mouse Sertoli cells and tested as 10x concentrated conditioned medium, not purified; Identified in the complex by mass spectrometry (gi|6678093); Said to be glycosylated; also called spi2.2
T1 sequence: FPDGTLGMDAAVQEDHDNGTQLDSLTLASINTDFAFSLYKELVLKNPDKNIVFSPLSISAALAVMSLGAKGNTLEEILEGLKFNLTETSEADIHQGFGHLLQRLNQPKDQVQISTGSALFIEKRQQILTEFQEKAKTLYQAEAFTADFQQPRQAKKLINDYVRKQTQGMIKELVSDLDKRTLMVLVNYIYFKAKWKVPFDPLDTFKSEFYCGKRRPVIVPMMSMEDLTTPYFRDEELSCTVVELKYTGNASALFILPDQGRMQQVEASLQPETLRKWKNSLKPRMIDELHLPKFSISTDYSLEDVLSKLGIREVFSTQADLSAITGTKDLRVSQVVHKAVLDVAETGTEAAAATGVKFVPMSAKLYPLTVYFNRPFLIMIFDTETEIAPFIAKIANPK
Put plainly: Western blot with anti-granzyme B antibody after 2 h incubation of granzyme B with SCCM; SDS-stable higher molecular mass band. The method, then:
FIGS. 4A-4C are images of Western blots showing that granzyme B is covalently modified by a factor (i) secreted by cultured Sertoli cells and (ii) is not SPI-6. FIGS. 4A-4C show Western blots of granzyme B incubated for two hours with HAM's control media, SCCM, or PBS. […] Each lane is as follows. […] Each lane of FIGS. 4B and 4C is as follows. 1) HAM's, 2) SCCM, 3) HAM's+granzyme B, 4) SCCM+granzyme B, 5) granzyme B, 6) mouse CTL lysate. The arrow indicates the higher molecular mass complex that appears when granzyme B is incubated with SCCM and that is not detected by the SPI-6 antibody.

Experiment [2] deals with T2, serpina3n-HA secreted by stably transfected Jurkat cells (clone SerE12-HA), in conditioned medium (mouse, UniProt Q91WP6 21-418).
T2 construct: Secreted into Opti-MEM I medium, which was concentrated 5x and used without purification; also called SerE12-HA conditioned medium; serpina3n expressed in Jurkat cells; not shown: C-terminal HA tag
T2 sequence: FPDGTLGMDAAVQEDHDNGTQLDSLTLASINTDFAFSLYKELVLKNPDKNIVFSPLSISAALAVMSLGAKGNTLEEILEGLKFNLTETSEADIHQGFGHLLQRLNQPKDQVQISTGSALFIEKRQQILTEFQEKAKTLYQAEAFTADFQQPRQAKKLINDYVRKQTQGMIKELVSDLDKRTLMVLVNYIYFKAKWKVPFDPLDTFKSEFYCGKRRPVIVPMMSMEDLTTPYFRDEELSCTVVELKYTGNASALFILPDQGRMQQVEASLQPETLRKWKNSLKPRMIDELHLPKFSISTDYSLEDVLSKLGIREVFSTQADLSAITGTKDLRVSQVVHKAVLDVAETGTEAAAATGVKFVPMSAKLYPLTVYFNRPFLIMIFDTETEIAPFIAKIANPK
Put plainly: complex formation on immunoblot and enzymatic activity assay with conditioned medium of transfected Jurkat cells. The protocol: 5 x10⁶ stable transfected cells (clone SerE12-HA) were incubated overnight in 1 ml OPTI-MEM I medium. Serpina3n in the cell lysate (L) and in the conditioned medium (CM) was detected by immunoblotting with anti-HA antibody. […] Formation of serpina3n-granzyme B complex was detected by SDS-PAGE and immunoblotting with an anti-granzyme B antibody.
FIG. 6C is a graph showing serpina3n-HA inhibits granzyme B enzymatic activity. Granzyme B (212 ng) was pre-incubated for 1 hr at 37° C. with increasing volumes of conditioned medium from SerE12-HA cells or pcDNA3-transfected cells, and then granzyme B activity was measured. Data are expressed as percentage of the activity of granzyme B pre-incubated with the medium of pcDNA3-transfected cells and are the mean±standard deviation of three independent experiments performed in triplicate.

B1: human granzyme B purified from the cytolytic granules of YT INDY cells (enzyme)
chain: not shown
notes: The mass spectrometry hit is gi|4758494, granzyme B precursor (Homo sapiens); also called grB; purified human granzyme B
With B1, the binding result in experiment [1] and in experiment [2] was “binds” in each case.
